{"source": "PubChem BioAssay AID757", "about": "(NMMLSC, 2007)", "note": "The campaign covered roughly 190,000 compounds. About 520 (0.27%) were called active. The inconclusive results got no clear call from the source; some entries with a clear call stand among them for comparison.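 The calls were made as follows: active = GTP binding activity at least 20 points away from the 100% control level, either lower or higher; inconclusive = compound flagged as likely green fluorescent, judged across all proteins; inactive = the rest.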", "data": [{"biological_target": "Ras-related C3 botulinum toxin substrate 1 (Homo sapiens) (UniProt P63000)", "test": "wildtype Rac1 GTP binding modulators, primary screen, biochemical, GST-Rac1 beads, flow cytometry, multiplex (AID 757)", "settings": "fluorescent GTP binding, at 10 µM, actives lie on both sides, 0 = cold GTP competed, 100 = untreated", "values": [{"compound": "CCn1c(COc2cccc(C)c2)nnc1SCC(=O)N1CCCC1", "GTP binding activity (% of control)": "inconclusive: 104%"}, {"compound": "O=C(Cn1ccc([N+](=O)[O-])n1)Nc1ccccn1", "GTP binding activity (% of control)": "inactive: 98%"}, {"compound": "Cc1cccc(Cc2c(C)nc3nc(SCC(=O)O)nn3c2C)c1", "GTP binding activity (% of control)": "active: 72%"}, {"compound": "CCc1ccc(NC(=O)Cn2c3[n+](c4c(F)c(F)ccc42)CCCCC3)cc1", "GTP binding activity (% of control)": "inactive: 97%"}, {"compound": "COc1cccc(N2CCN(C(=O)c3cccn4c(=O)c5c(C)c(C)sc5nc34)CC2)c1", "GTP binding activity (% of control)": "inconclusive: 81%"}, {"compound": "Cc1cc(N2CCCC2=O)cc(C)c1S(N)(=O)=O", "GTP binding activity (% of control)": "inconclusive: 105%"}, {"compound": "O=Cc1ccc(Sc2ncccn2)o1", "GTP binding activity (% of control)": "inactive: 95%"}, {"compound": "CCN(CC)c1ccc(/C=N/OCC(=O)Nc2cccc(C)c2)cc1", "GTP binding activity (% of control)": "inconclusive: 119%"}, {"compound": "Cc1cc(S(=O)(=O)n2ccnc2)c(Cl)cc1Cl", "GTP binding activity (% of control)": "inactive: 94%"}, {"compound": "CC1CCN(C(=O)/C=C/c2ccc(C(C)(C)C)cc2)CC1", "GTP binding activity (% of control)": "inactive: 100%"}, {"compound": "CCCCN1C2=NCCCN2c2cc(C)c(C)cc21", "GTP binding activity (% of control)": "inconclusive: 101%"}, {"compound": "CC(C)N1CCN(CC#Cc2ccccc2)CC1CCO", "note": "(configuration not stated)", "GTP binding activity (% of control)": "inactive: 102%"}, {"compound": "COc1cc(/C=C/CN2CCN(CCC(C)C)C(CCO)C2)ccc1O", "note": "(configuration not stated)", "GTP binding activity (% of control)": "inactive: 96%"}, {"compound": "COc1ccc(-c2c3c(nc4sc5c(=O)[nH]c(C)nc5c24)CCC3)cc1", "GTP binding activity (% of control)": "active: 76%"}, {"compound": "O=C(CNC(=O)c1ccco1)OCC(=O)c1ccc(Cl)cc1Cl", "GTP binding activity (% of control)": "inconclusive: 98%"}, {"compound": "Cc1ccc(C(=O)c2ccccc2C(=O)OCC(=O)NC(C)(C)C)cc1", "GTP binding activity (% of control)": "inactive: 98%"}, {"compound": "Cc1nn(C)cc1CNC(=O)C1C2CCC(O2)C1C(=O)O", "note": "(configuration not stated)", "GTP binding activity (% of control)": "inactive: 104%"}, {"compound": "CCCOc1ccc(N2C(=O)CC(SCc3nc4ccccc4[nH]3)C2=O)cc1", "note": "(configuration not stated)", "GTP binding activity (% of control)": "inactive: 99%"}, {"compound": "Nc1nonc1C(=O)NCCN=Cc1cc(Cc2ccccc2)cc(Br)c1O", "GTP binding activity (% of control)": "active: 128% [activator]"}, {"compound": "COc1ccc(Nc2nnc(SCC(=O)N3CC(=O)Nc4ccccc43)s2)cc1", "GTP binding activity (% of control)": "inconclusive: 87%"}, {"compound": "Clc1ccc2c(N/N=C/c3ccccc3Br)ccnc2c1", "GTP binding activity (% of control)": "inconclusive: 107%"}, {"compound": "Cc1nn(-c2ccccc2)c(Cl)c1C1C(C#N)=C(N)OC2=C1C(=O)CCC2", "note": "(configuration not stated)", "GTP binding activity (% of control)": "inconclusive: 106%"}, {"compound": "O=C(Nc1nccs1)c1cncc(Br)c1", "GTP binding activity (% of control)": "inactive: 102%"}, {"compound": "CCN(CC)S(=O)(=O)c1cc(C(=O)Nc2cc(Cl)ccc2N2CCN(C)CC2)ccc1Cl", "GTP binding activity (% of control)": "inconclusive: 101%"}, {"compound": "CC(C)(C)CC(=O)NC(=S)NCc1ccco1", "GTP binding activity (% of control)": "active: 125% [activator]"}, {"compound": "CCc1c(C)sc(NC(=O)CC#N)c1C#N", "GTP binding activity (% of control)": "inconclusive: 89%"}, {"compound": "COc1ccc(C2=NN(C(C#N)c3ccc(OC)cc3)C(c3ccccc3)C2)cc1", "note": "(configuration not stated)", "GTP binding activity (% of control)": "inactive: 105%"}]}]}
